# Measurements: the supplement of paper PMC8728848
# This is one part of the list.
# B1: BT3172pd (Bacteroides thetaiotaomicron) (protein)
# chain: MLPLRAEHYYYKQISLKEGLPSNVRCILRDEQGFIWIGTKAGLGKFDGHQLKRYKHQANDPHSLLHNLIYQIAEDKQHNIWILTEKGIARYQQQSNNFTFPTDEEGNYITAYSFCLVPDGILFGGKDRIYKYSYKDSSLRLLQYFNANSFKITALSVWDSKTLLCCSRWTGLYLVDLQTGEHRRPPFDCGPEITSMITDSKNRIWIAPYSGGLRCYSRDGKLSASYTTHNSSLSNDIVLSLAEREEQLWIGTDGGGINILHPETGEISQLEYIPGRENYSLPANSILCLHNDYNNNVWAGSTCNGLISIREVSMKTYTDVVPGNDRGLSNGTVRSLYRQSPDSIWIGTDGGGINLFSPHTEKFTHYSSTWGDKVAFISGFTPGKLLISLFSKGVFVFNPATGEKQPFTIIDKETTTRLCNRGKSVNLYQNTPNTVLFLGDHIYQYHLKEKKFSTITEEEGKDIVGTLVPFDHQENLTYINDIKHIYELDDQTSRLKTVFECYTDTVISSVSHDEQGHFWIGSNFGLIHYDPVLKSRTLVPTNLFTEINMVLCDQKGKVWIGVDNMLFAYFIKEQKFVLFGESNGAIQNEYLPNARLVNEQGDAYIGGVKGMLRIDGQLLLNTSEMPELQLLDITINGESANHEWYNHPAKISVPWNSNISIRIMSREEDIFRQKIYRYQIEGLNNEYTESYNPELVIRSLLPGSYRIMASCTAKDGSWIPDQQVLELTVLPPWYRTHHHHHH
# How the values were obtained:
# Assay in all cases: glycan array binding signal (z-score within array); higher = stronger binding
# Conditions in all cases: glycan notation: IUPAC condensed, linker removed
# [1] = target: Gal(b1-3)GlcNAc(b1-2)Man(a1-3)[Gal(b1-3)GlcNAc(b1-2)Man(a1-6)]Man(b1-4)GlcNAc(b1-4)[Fuc(a1-6)]GlcNAc
# Method in brief: (§1)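 Columns mapping to the same glycan were averaged after glycan names were converted to IUPAC-condensed notation. The data come from 3228 arrays in the Consortium for Functional Glycomics database, limited to those with an available protein sequence. Binding is reported as a within-array Z-score averaged across arrays of one protein sequence and across linkers.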
# [2] = target: Gal(b1-3)GlcNAc(b1-2)Man(a1-3)[GlcNAc(b1-4)][Gal(b1-3)GlcNAc(b1-2)Man(a1-6)]Man(b1-4)GlcNAc(b1-4)GlcNAc
# Method in brief: as §1
# [3] = target: Gal(b1-3)GlcNAc(b1-2)[Gal(b1-3)GlcNAc(b1-6)]Man(a1-6)[Gal(b1-3)GlcNAc(b1-2)Man(a1-3)]Man(b1-4)GlcNAc(b1-4)GlcNAc
# Method in brief: as §1
# [4] = target: Gal(b1-3)GlcNAc(b1-3)Gal(b1-3)GlcNAc
# Method in brief: as §1
# [5] = target: Gal(b1-3)GlcNAc(b1-3)Gal(b1-4)Glc
# Method in brief: as §1
# [6] = target: Gal(b1-3)GlcNAc(b1-3)Gal(b1-4)GlcNAc
# Method in brief: as §1
# [7] = target: Gal(b1-3)GlcNAc(b1-3)Gal(b1-4)GlcNAc(b1-2)Man(a1-3)[Gal(b1-3)GlcNAc(b1-3)Gal(b1-4)GlcNAc(b1-2)Man(a1-6)]Man(b1-4)GlcNAc(b1-4)GlcNAc
# Method in brief: as §1
# [8] = target: Gal(b1-3)GlcNAc(b1-3)Gal(b1-4)GlcNAc(b1-2)[Gal(b1-3)GlcNAc(b1-3)Gal(b1-4)GlcNAc(b1-6)]Man(a1-6)[Gal(b1-3)GlcNAc(b1-3)Gal(b1-4)GlcNAc(b1-2)Man(a1-3)]Man(b1-4)GlcNAc(b1-4)[Fuc(a1-6)]GlcNAc
# Method in brief: as §1
# [9] = target: Gal(b1-3)GlcNAc(b1-3)Gal(b1-4)GlcNAc(b1-3)Gal(b1-4)GlcNAc(b1-2)[Gal(b1-3)GlcNAc(b1-3)Gal(b1-4)GlcNAc(b1-3)Gal(b1-4)GlcNAc(b1-6)]Man(a1-6)[Gal(b1-3)GlcNAc(b1-3)Gal(b1-4)GlcNAc(b1-3)Gal(b1-4)GlcNAc(b1-2)Man(a1-3)]Man(b1-4)GlcNAc(b1-4)[Fuc(a1-6)]GlcNAc
# Method in brief: as §1
# [10] = target: Gal(b1-3)GlcNAc(b1-3)Gal(b1-4)GlcNAc(b1-6)[Gal(b1-3)GlcNAc(b1-3)]Gal(b1-4)Glc
# Method in brief: as §1
# [11] = target: Gal(b1-3)GlcNAc(b1-3)Gal(b1-4)[Fuc(a1-3)]GlcNAc
# Method in brief: as §1
# [12] = target: Gal(b1-3)GlcNAc(b1-3)Gal(b1-4)[Fuc(a1-3)]GlcNAc(b1-6)[Gal(b1-3)GlcNAc(b1-3)]Gal(b1-4)Glc
# Method in brief: as §1
# [13] = target: Gal(b1-3)GlcNAc(b1-3)GalNAc
# Method in brief: as §1
# [14] = target: Gal(b1-3)GlcNAc(b1-6)Gal(b1-4)GlcNAc
# Method in brief: as §1
# [15] = target: Gal(b1-3)GlcNAc(b1-6)GalNAc
# Method in brief: as §1
# [16] = target: Gal(b1-3)GlcNAc(b1-6)[Gal(b1-3)]GalNAc
# Method in brief: as §1
# Gal(b1-3)GlcNAc6S = target: Gal(b1-3)GlcNAc6S
# Method in brief: as §1
# [17] = target: Gal(b1-3)[Fuc(a1-4)]GlcNAc
# Method in brief: as §1
# [18] = target: Gal(b1-3)[Fuc(a1-4)]GlcNAc(b1-2)Man
# Method in brief: as §1
# [19] = target: Gal(b1-3)[Fuc(a1-4)]GlcNAc(b1-2)Man(a1-3)[Gal(b1-3)[Fuc(a1-4)]GlcNAc(b1-2)Man(a1-6)]Man(b1-4)GlcNAc(b1-4)[Fuc(a1-6)]GlcNAc
# Method in brief: as §1
# [20] = target: Gal(b1-3)[Fuc(a1-4)]GlcNAc(b1-3)Gal(b1-3)[Fuc(a1-4)]GlcNAc
# Method in brief: as §1
# [21] = target: Gal(b1-3)[Fuc(a1-4)]GlcNAc(b1-3)Gal(b1-4)[Fuc(a1-3)]GlcNAc
# Method in brief: as §1
# [22] = target: Gal(b1-3)[Fuc(a1-4)]GlcNAc(b1-6)GalNAc
# Method in brief: as §1
# [23] = target: Gal(b1-3)[GlcNAc(b1-6)]GalNAc
# Method in brief: as §1
# [24] = target: Gal(b1-3)[Neu5Ac(a2-6)]GalNAc
# Method in brief: as §1
# [25] = target: Gal(b1-3)[Neu5Ac(a2-6)]GlcNAc(b1-4)Gal(b1-4)Glc
# Method in brief: as §1
# [26] = target: Gal(b1-3)[Neu5Ac(b2-6)]GalNAc
# Method in brief: as §1
# Gal(b1-4)Gal = target: Gal(b1-4)Gal
# Method in brief: as §1
# [27] = target: Gal(b1-4)GalNAc(a1-3)[Fuc(a1-2)]Gal(b1-4)GlcNAc
# Method in brief: as §1
# [28] = target: Gal(b1-4)GalNAc(b1-3)[Fuc(a1-2)]Gal(b1-4)GlcNAc
# Method in brief: as §1
binder,measurement,setting,value
B1,glycan array binding signal (z-score),[1],-0.445
same,glycan array binding signal (z-score),[2],0.825
same,glycan array binding signal (z-score),[3],-0.006
same,glycan array binding signal (z-score),[4],-0.412
same,glycan array binding signal (z-score),[5],0.004
same,glycan array binding signal (z-score),[6],-0.069
same,glycan array binding signal (z-score),[7],0.122
same,glycan array binding signal (z-score),[8],-0.073
same,glycan array binding signal (z-score),[9],-0.261
same,glycan array binding signal (z-score),[10],0.805
same,glycan array binding signal (z-score),[11],-0.172
same,glycan array binding signal (z-score),[12],-0.252
same,glycan array binding signal (z-score),[13],-0.455
same,glycan array binding signal (z-score),[14],-0.291
same,glycan array binding signal (z-score),[15],-0.404
same,glycan array binding signal (z-score),[16],-0.299
same,glycan array binding signal (z-score),Gal(b1-3)GlcNAc6S,-0.026
same,glycan array binding signal (z-score),[17],-0.208
same,glycan array binding signal (z-score),[18],0.249
same,glycan array binding signal (z-score),[19],-0.393
same,glycan array binding signal (z-score),[20],-0.769
same,glycan array binding signal (z-score),[21],0.172
same,glycan array binding signal (z-score),[22],-0.57
same,glycan array binding signal (z-score),[23],0.293
same,glycan array binding signal (z-score),[24],0.387
same,glycan array binding signal (z-score),[25],-0.294
same,glycan array binding signal (z-score),[26],-0.596
same,glycan array binding signal (z-score),Gal(b1-4)Gal,-0.305
same,glycan array binding signal (z-score),[27],-0.349
same,glycan array binding signal (z-score),[28],-0.489
